Laboratory results taken from PubChem BioAssay (NCI).
Where “and” joins values, the source holds several entries; their conditions need not be identical. Equal values may be shown once.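 Protocol summary: plate cells (96-well), add compound at 5 concentrations, incubate 48 h, interpolate endpoints linearly. Here, GI50 denotes the concentration required for 50% inhibition of growth. At the TGI there is no net growth.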 Bridge positions count the residues as written; N and C are the ends. Peptide text beside a SMILES is read from it.

tested on: NCI-H322M lung; assay: NCI-60 cell line screen, 48 h

| SMILES | TGI | GI50 |
| --- | --- | --- |
| Cc1cc(C)c(S(=O)(=O)N(CCCCCN)OCCCN)c(C)c1 | 33.6 µM | – |
| CC12CC(c3ccccc3O1)C(C(=O)Nc1nccs1)C(=O)N2 (stereo not drawn) | > 100 µM | – |
| CCCCS(=O)(=O)c1cc(Nc2ccc(O)c3c2C(=O)c2ccccc2C3=O)ccc1C | > 100 µM | 1.46 µM |
| O=C1C(=O)N(c2cc(Cl)ccc2Cl)C(=O)C(=O)C1c1nc2ccccc2s1 | > 100 µM | – |
| Cc1cc(C)c(-c2c(O)c(Br)c(-c3c(C)cc(C)c(Br)c3C)c(O)c2Br)c(C)c1Br | 21.4 µM | 3.1 µM |
| COc1ccc(C2=NNC(c3sc(Cl)nc3Cl)C2)cc1 (stereo not drawn) | 25.7 µM | 12.4 µM |
| C(=Nc1ccc(-c2nc3ccccc3s2)cc1)c1cccs1 | > 100 µM | – |
| COc1ccc(-c2csc3c2[N+]2(C)C=CC=C2C3N2CCCC2)cc1 (stereo not drawn) | > 100 µM | – |
| CCOC(=O)NN1C(=O)C(=P(c2ccccc2)(c2ccccc2)c2ccccc2)C(C(=O)OC)=C1C | > 100 µM | – |
| COC(=O)C1CCC(=O)NCCCCC(NC(=O)C(N)CC(=O)O)C(=O)N1 (stereo not drawn) (H-Asp-Lys-Glu-OMe; lactam 2-3; configuration not given here) | > 100 µM | – |
| CC1(C)Cc2ccccc2C(C)(Cl)C(=O)N1 (stereo not drawn) | > 10 µM | – |
| COc1ccc(-c2cn3ccnc3c(-c3ccc(Cl)cc3)n2)cc1 | > 100 µM | 13 µM |
| C[C@]12CC[C@H]3[C@@H](CC=C4C[C@@H](O)CC[C@@]43C)[C@@H]1C/C(=C\c1ccc([N+](=O)[O-])cc1)[C@@H]2O | 22.5 µM | – |
| CCCC(=O)Nc1cc(/C=C/C(=O)N2C[C@@H]3C[C@]34C2=CC(=O)c2[nH]cc(C)c24)n(C)c1 | – | 0.281 µM |
| C[C@]12CC[C@H](OC(=O)Nc3ccccc3)CC1=CC[C@@H]1C2CC[C@]2(C)/C(=N/OC(=O)Nc3ccccc3)CCC12 (stereo partly drawn) | > 100 µM | – |
| COc1ccc(NCn2nc(CCCCCCCCc3nn(CNc4ccc(OC)cc4)c(=S)o3)oc2=S)cc1 | > 100 µM | – |
| C/C(=C\c1ccccc1)C(=O)c1c(C)cc(C)cc1C | > 100 µM | – |
| CC(C)(C)OC(=O)NCCCCCCCCCCCCn1c2c(c3ccccc3c1=O)C(=O)c1ccccc1-2 | > 100 µM | > 100 µM |
| CC(Cl)(CCC(Cl)C(C)(C)Cl)C(=O)CBr (stereo not drawn) | 58.6 µM | – |
| COc1ccc(CN2c3ccccc3Sc3ccccc32)cc1O | 25.3 µM | 11.7 µM |
| COc1cc(/C=C2\N=C(c3ccccc3)N(c3cc4cc(Sc5ccccc5)ccc4[nH]3)C2=O)ccc1O | > 50 µM | – |
| Cc1cc2ccccc2oc(=O)/c1=N\Nc1ccccc1 | > 100 µM | – |
| O=C(Oc1cncc(Cl)c1)c1cc2ccccc2sc1=O | > 100 µM | – |
| O=C(C#Cc1ccccc1)NC/C=C/c1ccccc1 | > 100 µM | – |
| O=C(CC1(O)CCCCC1)OC1CCCC1 | > 100 µM | – |
| C[C@]12CCC3c4ccc(O)cc4CCC3C1CC[C@@H]2NC(=O)/C=C/c1ccc(O)c(O)c1 (stereo partly drawn) | 54.1 µM | 18.9 µM |
| COc1c2c(c(O)c3c4c(c(C)cc13)C1OC3(C(OC)OC5CC(C)(O)C(OC6CC(C)(O)C(O)C(C)O6)C(C)O5)OC1C(OC)(O4)C31CO1)C(=O)C(O)CC2OC1CC(C)(O)C(OC(C)=O)C(C)O1 (stereo not drawn) | < 0.01 µM | – |

| SMILES | TGI | GI50 |
| --- | --- | --- |
| BrCc1ccc2ccc3ccc(CBr)nc3c2n1 | 22.2 µM | – |
| N#C/C(=C/C=C/c1cccc(Cl)c1)S(=O)c1ccccc1 (stereo not drawn) | 2.01 µM | 0.52 µM |
| COC(=O)c1c(CC(=O)OC(C)C)cc2n(c1=O)Cc1c-2nc2ccccc2c1OC | > 100 µM | – |
| COc1ccc(Cn2c(=O)c(OS(=O)(=O)C(F)(F)F)c(C)c3cc4ccccc4cc32)cc1 | > 100 µM | – |
| COc1ccc(N=c2nc3sc4cc(Cl)ccc4n3c(N)c2C#N)cc1 | > 100 µM | 4.39 µM |
| C/C(CC(O)(C(F)(F)F)C(F)(F)F)=N\O | > 10 µM | – |
| COc1ccc(-c2nc(-c3cnccn3)n(C/C=C/c3ccccc3)n2)cc1 | > 100 µM | – |
| COc1ccc(/C=C(\C#N)c2cc(OC)c(OC)c(OC)c2)cc1 | > 100 µM | 67.6 µM |
| OC[C@H]1N[C@H](CO)[C@@H](O)[C@H]1O | > 100 µM | – |
| C=CC(C)(C)/C(=C\CO[Si](C(C)C)(C(C)C)C(C)C)C(=O)N(C)c1ccccc1I | 34.9 µM | – |
| COc1cccc(C=NC23CC4CC(CC(C4)C2)C3)c1 | > 100 µM | – |
| CN1C2C=CC(=O)C1C(C#N)C2 (stereo not drawn) | > 100 µM | – |
| O=c1cc(-c2ccccc2)oc2cc(OCCCCCCCCCCOc3ccc4c(=O)cc(-c5ccccc5)oc4c3)ccc12 | > 100 µM | – |
| CSCc1ncc(-c2ccc(C(F)(F)F)cc2)c(NC2CCCCCC2)n1 | > 10 µM | > 10 µM |
| CCN(CC)CC[n+]1ccc2c(C)c3[nH]c4ccccc4c3c(C)c2c1 | 3.15 µM and 5.54 µM and 5.44 µM | – |
| COC1CCC(OC)C(c2nc3sccn3c2/C=N/N=C(N)N)C1 (stereo not drawn) | 83.1 µM | 8.23 µM |
| COC(=O)CCC(NC(=S)N/N=C(\C)c1cccs1)C(=O)OC (stereo not drawn) | > 100 µM | – |
| O=C(NCCCN1CCN(CCCNC(=O)Nc2cc(Cl)ccc2Cl)CC1)Nc1cc(Cl)ccc1Cl | > 100 µM | – |
| CCOC(=O)C1=C(N2CCCC2)C(=O)C(C(=O)OCC)C1 (stereo not drawn) | > 100 µM | – |
| CC1=NN(c2ccccc2)C(=O)/C1=C\c1c(C)[nH]n(-c2ccccc2)c1=O | > 100 µM | – |
| Cn1cc(-c2csc(-c3ccc(Cl)cc3)n2)c2cccnc21 | 37.7 µM | 13.2 µM |
| Cc1c2cc[n+](C)cc2c(C)c2c1[nH]c1ccc(OCC(F)(F)F)cc12 | > 100 µM | – |
| COC(OC)c1cccnc1C | > 100 µM | – |
| COc1ccc2c(CN3CCCC[C@H]3O)cc3cc4c(cc3c2c1)OCO4 | 5.12 µM | 0.42 µM |
| COC(=O)C1=C(O)c2cc(OC)c(OC)c(OC)c2C(c2ccc3c(c2)OCO3)[C@@H]1C(=O)OC (stereo partly drawn) | > 100 µM | – |
| C=C(CN1CCN(c2ccccn2)CC1)c1ccc(C(=O)Nc2ccccc2N)cc1 | 17.1 µM | 3.12 µM |
| Nc1ccc(C(=O)N/C(=C\c2ccc3c(c2)OCO3)c2nc3ccccc3s2)cc1 | 29.9 µM | – |

| SMILES | TGI | GI50 |
| --- | --- | --- |
| S=C(Nc1ccc(-c2nc3ccccc3s2)cc1)Nc1ccc(-c2nc3ccccc3s2)cc1 | > 100 µM | 21.9 µM |
| O=C(OCC1=CC(=O)c2ccccc2C1=O)c1ccccc1 | 22.6 µM | 8.16 µM |
| Cc1cc(NS(=O)(=O)c2ccc(Nc3c4ccccc4nc4c(C(=O)NC(CO)(CO)CO)cccc34)cc2)no1 | > 100 µM | – |
| Cc1cccc(C=NC23CC4CC(CC(C4)C2)C3)c1 | > 100 µM | – |
| CC(NC1CCCC[C@@H]1O)c1ccccc1 (stereo partly drawn) | > 100 µM | – |
| Cc1cc(O)c2c(c1)OC1(C)CCC3C(C)(C)CCCC34COC2C14 (stereo not drawn) | 18.4 µM | – |
| CCOC(=O)c1sc(NC(=O)COc2ccc(/C=C3\CCc4cc(OC)ccc4C3=O)cc2)nc1C | 25.8 µM | 12.7 µM |
| Cc1c(C(=O)O)sc2nc[nH]c(=O)c12 | > 100 µM | – |
| N.N.N.N.O=S([O-])[O-].[Co+3].[N-]=[N+]=[N-] | > 100 µM | > 100 µM |
| CNCC(SC)c1ccc(O)c(O)c1 (stereo not drawn) | > 100 µM | – |
| Nc1ccccc1SC(/C=C/NNC1=NC(c2ccccc2)C(c2ccccc2)=NN1)c1ccccc1 (stereo not drawn) | 29.9 µM | – |
| CC(C)(O)c1cc(Nc2cc(Oc3cn(C4CC4)nc3C3CCOCC3)ccn2)ccn1 | > 100 µM | > 100 µM |
| O=Cc1c2c(cc3c1CC1(C3)Cc3cc4c(c(C=O)c3C1)CCC4)CCC2 | > 100 µM | – |
| C/C(=N\Nc1nc2cc(F)ccc2s1)c1ccccn1 | > 42.6 µM | – |
| CC(=O)OC1C2CCC3CC2C2(SCCS2)C31 (stereo not drawn) | > 100 µM | – |
| COC(=O)CCCc1nc2ccccc2nc1N=Nc1ccccc1 | > 100 µM | – |
| Cc1c2oc(=O)c(C#N)cc2c2ccccn12 | > 100 µM | – |
| CN(CCOc1ccc(NS(C)(=O)=O)cc1)CCc1ccc(NS(C)(=O)=O)cc1 | > 100 µM | > 100 µM |
| CN(C)CCN=c1nc2c(c(N)n1-c1ccccc1)c(=S)n(-c1ccccc1)c(=S)n2-c1ccccc1 | 18.4 µM | 4.55 µM |
| CC(C)=CCNc1ncnc2c1ncn2CCC(=O)O | > 100 µM | – |
| C=C(CN1CCc2ccccc2C1)c1ccc(CCCC(=O)Nc2ccccc2N)cc1 | > 100 µM | 22.2 µM |
| CC(=O)/C(=N\N=C(N)N)c1ccccc1 | > 100 µM | – |
| CSCCC(NC(=O)C(Cc1c[nH]c2ccccc12)NC(=O)CCNC(=O)OC(C)(C)C)C(=O)NC(CC(=O)O)C(=O)NC(Cc1ccccc1)C(N)=O (stereo not drawn) | > 50 µM | – |
| O=C(NNC(=O)c1ccc(Cl)cc1NC(=O)C12CC3CC(CC(C3)C1)C2)c1ccc(Cl)cc1 | 67.9 µM | – |
| O=C1c2ccccc2-c2c1c1ccccc1c(=O)n2CCNCCNCCNCCNCCn1c2c(c3ccccc3c1=O)C(=O)c1ccccc1-2 | 0.219 µM | 0.0272 µM |
